Measured values from PubChem BioAssay AID652104 (National Center for Advancing Translational Sciences (NCATS), 2013).
Screen size: about 410,000 compounds; about 7,200 (1.8%) were called active. The inconclusive results got no clear call from the source; some entries with a clear call stand among them for comparison. Calls come from the whole dose curve; as a rule, active = well fitted activation curve with a large enough effect; inconclusive = small, poorly fitted or top-dose-only effect, or another doubt; inactive = no such curve, though single readings can be large or run the other way. No potency is given beside an inconclusive call; the fits are too rough.

Test: qHTS of TDP-43 Inhibitors; note: nearly all actives have a fitted effect of over 50% in size; for growth rescue (activation): % of control where 0% means no effect
Details: TDP-43 expressing yeast growth rescue, BacTiter-Glo, 24 h; growth rescue (activation): at 46.1 µM (top of the series) unless noted
How it was run: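 Galactose-induced TDP-43 yeast, OD600=0.02, compound pinned; 24 hr, 30 deg C; BacTiter-Glo luminescence for growth. Inhibitors of TDP-43 toxicity read as activators.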
Potency is the fitted concentration of half-maximal effect; tags give direction and shape of the fitted curve.

SMILES	Potency	growth rescue (activation)
O=C(Nc1cccc2ccccc12)c1ccc2sc([C@@H]3O[C@H](CO)[C@@H](O)[C@H]3O)nc2c1	inconclusive [activator, full curve, poor fit]	–
CCCCOC(=O)c1ccc(NC(=O)c2cnccn2)cc1	inconclusive [activator, partial curve]	–
CC(=O)Nc1ccc(-c2cc(-c3ccccc3)nc(-c3ccccc3)n2)cc1	inconclusive [activator, full curve, poor fit]	–
CCn1cc(C(=O)O)c(=O)c2cc(OC)ccc21	inconclusive [activator, partial curve, poor fit]	–
COc1cc2nc3occc3c(OC)c2cc1OC	inconclusive [activator, single point]	–
CCOC(=O)c1ccc(N)cc1	inconclusive [activator, partial curve, poor fit]	–
CCN(CC)C(=O)c1sc2c(c1C)c(=O)n(CCc1ccccc1)c(=O)n2Cc1ccc(C)cc1	inconclusive [activator, single point]	–
Cc1nc(N2CCC(C)CC2)c2c(C)c(C(=O)Nc3cccc(C(F)(F)F)c3)sc2n1	inconclusive [activator, single point]	–
O=C(NCc1cc2ccccc2[nH]1)C1CCC(=O)N(CC2CCCCC2)C1 (centres undefined)	inconclusive [activator, full curve, poor fit]	–
CC1(c2ccccc2)NC(=O)N(CC(=O)N2CCc3ccccc32)C1=O (centres undefined)	inconclusive [activator, partial curve]	–
CCOc1ccc(S(=O)(=O)Nc2nc3ccccc3nc2N2CCN(C)CC2)cc1	–	inactive: 11.9%
COc1ccc(-n2c(NC(=O)c3ccco3)c(C#N)c3nc4ccccc4nc32)cc1	–	inactive: 6.63%
Brc1cccc(-c2n[nH]c(-c3ccccc3)n2)c1	inconclusive [activator, single point]	–
Cc1cc(C)cc(NC(=O)Cn2nc(N3CCN(c4ccccc4)CC3)ccc2=O)c1	–	inactive: 20.2%
COc1ccc(NC(=O)CSc2nnc(C3CCCCC3)o2)c(OC)c1	inconclusive [activator, single point]	–
O=S(=O)(c1cccc2nsnc12)N1CCN(c2ccccc2F)CC1	active: 15.8 µM	–
O=C(O)C1=C[C@H](c2csc3ccccc23)C[C@H](OCc2ccc(CO)cc2)O1	–	inactive: 11.5%
CC1CCN(c2ccc3c(c2)S(=O)(=O)c2cccc(C(=O)NC[C@@H]4CCCO4)c2C3=O)CC1	–	inactive: -1.48%
CCNC(=S)N/N=C(\C)c1ccc2c(c1)OCCO2	inconclusive [activator, partial curve]	–
CC(C)CNC(=O)c1ccc(COc2ccc(Cl)cc2Cl)o1	inconclusive [activator, single point]	–
CCOC(=O)c1ccc(N=c2scc(C)n2CC)cc1	–	inactive: -7.2% [at 0.397 µM]
NC(=S)N/N=C/c1ccc(-c2cc(Cl)ccc2Cl)o1	inconclusive [activator, single point]	–
Cc1ccc(CNC(=O)CCSCc2cnn(-c3ccccc3)c2-n2cccc2)cc1	active: 20 µM	–

SMILES	Potency	growth rescue (activation)
COc1ccccc1NC(=O)/C=C\c1ccco1	inconclusive [activator, partial curve]	–
CCn1ncc(/C=N\NC(=O)c2ccc3c(c2)c(C)c(C)n3Cc2ccccc2)c1C	–	inactive: 3.91%
CCc1cc(C(=O)OC)c(NC(=O)c2ccoc2C)s1	–	inactive: 21.4%
Cc1ccc(C)c(-c2nnc(NC(=O)COc3ccccc3)o2)c1	active: 14.1 µM	–
CCCc1nc2ccccc2c(C(=O)OCc2nnc(-c3cc(OC)c(OC)c(OC)c3)o2)c1CC	inconclusive [activator, single point]	–
c1ccc(-c2csc(-c3cccnc3)n2)cc1	inconclusive [activator, single point]	–
O=S(=O)(Cc1ccccc1Cl)NCCc1ccc(F)cc1	inconclusive [activator, partial curve]	–
O=C(CSc1nnc2[nH]c(=O)cc(-c3ccccc3)n12)Nc1ccc(OC(F)(F)F)cc1	inconclusive [activator, single point]	–
c1ccc(-c2nc3c(ccc4ccccc43)[nH]2)nc1	inconclusive [activator, single point]	–
CC(C)(C)c1ccc(C(=O)N2CCN(C(=O)C3CCCCC3)CC2)cc1	inconclusive [activator, single point]	–
O=C(Nc1ccc(N2CCOCC2)c(Cl)c1)c1cc(F)c(F)cc1Cl	inconclusive [activator, partial curve]	–
O=C(CCl)N(Cc1ccccc1)c1ccccc1	active: 20 µM	–
CC(C)(C)CC(=O)Nc1cc2c3c(c1)CC(=O)N3CCC2	inconclusive [activator, partial curve]	–
CC(=O)NCCNC(=O)Cn1nnc(-c2ccccc2)c1COc1ccc2ccccc2c1	inconclusive [activator, full curve, poor fit]	–
O=C1N=C(N2CCCC2)S/C1=C\c1cccc(Br)c1	inconclusive [activator, single point]	–
COc1ccc(N(C(=O)c2ccncc2)S(=O)(=O)c2ccccc2)cc1	inconclusive [activator, partial curve]	–
Cc1csc2nc(COC(=O)c3cccc(NC(=O)COc4ccccc4Cl)c3)cc(=O)n12	inconclusive [activator, partial curve]	–
CCN(CC)CCOC(=O)C(c1ccccc1)c1ccccc1	inconclusive [activator, partial curve, poor fit]	–
Cc1cccc(C)c1NC(=O)C(C1CC1)n1c(=O)c(-c2ccccc2)nc2ccccc21 (centres undefined)	active: 12.6 µM	–
CC1(C)Oc2ccc3ccc(=O)oc3c2/C(=C/N)C1=O	inconclusive [activator, partial curve]	–
CC1CCC/C=C/C(=O)c2c(O)cc(O)cc2CC(=O)O1 (centres undefined)	inconclusive [activator, single point]	–
CCOc1ccc(NC(=O)C(CC(C)C)N2Cc3ccccc3C2=O)cc1 (centres undefined)	–	inactive: 5.28%
O=C(OCCN=C1NS(=O)(=O)c2ccccc21)c1cccnc1	inconclusive [activator, single point]	–

SMILES	Potency	growth rescue (activation)
CCOc1ccc(NC(=O)Cn2c(=O)n(CC3CCC(C(=O)NCCc4ccccc4)CC3)c(=O)c3ccccc32)cc1 (centres undefined)	inconclusive [activator, single point]	–
O=C(Cc1ccc(Cl)cc1)NCC(c1cccs1)S(=O)(=O)c1ccccc1 (centres undefined)	inconclusive [activator, single point]	–
CCOc1ccc(NC(=S)Nc2ccccc2C2(C)CC2)cc1	inconclusive [activator, partial curve]	–
CCOc1cccc(C(=O)Nc2nc(-c3ccc(S(=O)(=O)N4CCOCC4)cc3)cs2)c1	–	inactive: 3.82%
O=[N+]([O-])c1ccc(Oc2ccc(F)cc2)c2ccncc12	inconclusive [activator, single point]	–
C=CCc1cccc(CNc2ccc(S(=O)(=O)Nc3nccnc3OC)cc2)c1O	–	inactive: -19.3%
COc1cccc(N2CCN(C(=O)CCSCc3ccccc3F)CC2)c1	active: 15.8 µM	–
CCn1ccc2c(OCC(=O)Nc3ccc(C)c(Cl)c3)cccc2c1=O	active: 22.4 µM	–
Cc1ccc(Oc2ccc(C(F)(F)F)cc2[N+](=O)[O-])c([N+](=O)[O-])n1	inconclusive [activator, single point]	–
Cc1cccc(C(=O)Nc2c(C(=O)N3CCN(c4ccc(F)cc4)CC3)oc3ccccc23)c1	inconclusive [activator, full curve, poor fit]	–
N#Cc1nc(COc2ccccc2)oc1N1CCCCC1	inconclusive [activator, single point]	–
CC1CC1C(=O)Nc1ccc(S(=O)(=O)N2CCCCC2)cc1 (centres undefined)	–	inconclusive: 33.8% [activator]
O=C(CCn1c(=O)c2cccn2c2cccnc21)N1CCN(c2ccc(F)cc2)CC1	active: 12.6 µM	–
COc1ccc(CNC(=O)CCS(=O)(=O)c2ccc3c(c2)NC(=O)CS3)cc1	–	inactive: 1.67%
COC(=O)CCC(C)C1CCC2C3CCC4CC(O)CCC4(C)C3=CC(=O)C12C (centres undefined)	inconclusive [activator, single point]	–
COc1ccc(C2c3ccc(O)cc3Oc3ncn(CCCO)c(=N)c32)cc1 (centres undefined)	–	inactive: -21.3%
CC(C)(C)SCCNC(=O)/C=C/c1ccc([N+](=O)[O-])cc1	inconclusive [activator, single point]	–
O=C(CCCc1nc2ccccc2s1)NCc1ccccc1F	–	inactive: 7.7%
CC(C)c1nnc(NC(=O)c2cccs2)s1	inconclusive [activator, single point]	–
C=CCNC(=O)c1csc(-c2ccccc2)n1	inconclusive [activator, partial curve]	–
Nc1nonc1-n1nnc(C(=O)N/N=C/c2cccnc2)c1-c1cccs1	–	inactive: -17.5%
O=C(c1cc(F)c(F)cc1Cl)N1CCN(c2ccc([N+](=O)[O-])c3ncccc23)CC1	inconclusive [activator, single point]	–
O=C1OCCC1Sc1nnnn1-c1ccc(Cl)cc1 (centres undefined)	inconclusive [activator, partial curve]	–
